Here are results for eleven compounds from PubChem BioAssay (NCATS).

The term AC50 denotes the midpoint of the concentration-response curve, whichever way the signal moves.

Molecules are shown by their SMILES. Some of the results follow. Further columns of the screen follow, without active or inactive calls. The list favours compounds with an active or inconclusive main result. Potencies come from curve fits of mixed quality, noted in brackets.
Tags tell the direction and shape of the fitted curve.

The assay is described as follows: qHTS Assay for Lipid Storage Modulators (AID 1519). The note with it: Drosophila S3 cells, BODIPY lipid droplet/cell ratio, laser cytometry; measured here: cell number channel AC50; cells loaded with oleic acid. The method, boiled down: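 Cells seeded at 5,000 per well were treated with compounds over a concentration series and loaded with oleic acid (400 uM, as added). Lipid droplet fluorescence (488 nm excitation, 500-530 nm channel) was read by laser-scanning cytometry and normalized to 20 uM Triacsin C.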
On the technique in general: qHTS replaces the single test concentration by a dilution series.
For `c1cncc(-c2nccc(NCc3cccs3)n2)c1`, the concentration at half-maximal activity (AC50) is 0.708 µM [rising, full curve].
For the compound `O[C@H](CCCN1CCN(c2ncc(F)cn2)CC1)c1ccc(F)cc1`, the AC50 was 12.6 µM [rising, partial curve, poor fit].
For `COc1cccc(Nc2ncc3nc(-c4ccccc4)c(=O)n(C)c3n2)c1` the value was 1.58 µM [rising, partial curve]; for `CO[C@]12C[C@@H](COC(=O)c3cncc(Br)c3)CN(C)[C@@H]1Cc1cn(C)c3cccc2c13`, 12.6 µM [rising, partial curve]; for `COC(=O)C1OC(=O)C2OC23[C@]2(C)C(OC(C)=O)CC4C(C)(C)C(=O)CC[C@]4(C)C2CC[C@@]13C` (stereo partly specified), 2.24 µM [rising, partial curve, poor fit].
With `COc1cc(/C=C/C(=O)N2CCCCC2=O)cc(OC)c1OC`, the AC50 was 14.1 µM [rising, full curve].
With `COCCn1c(=O)c(-c2ccc(OC)cc2)nc2cnc(N3CCNCC3)nc21`, the AC50 was 2 µM [rising, full curve, poor fit].
`CCCCCCc1c(C[C@H](N)C(=O)O)o[nH]c1=O`: the AC50 is 14.1 µM [rising, single point].
Regarding `COc1cccc(-c2ccc3ncnc(N4CCOCC4)c3c2)c1`, the concentration at half-maximal activity (AC50) is 4.47 µM [rising, partial curve, poor fit].
For `O=C(Cc1ccc(Cl)cc1)c1c(O)cc(O)cc1O`, the AC50 is 3.98 µM [rising, full curve, poor fit].
For the compound `CC(N)(C(=O)O)c1ccc(C(=O)O)cc1` (stereo unspecified), the AC50 was 0.112 µM [falling, full curve, poor fit].
